This is one part of the list. Each Rep nickase domain was tested in vitro on the same pool of single strands (3 µM enzyme, 1 h, 37 °C); shown is the middle of each 90-letter strand. The score is log2 (uncut reads / reads without enzyme); strong cutting gives strongly negative numbers. There is no active / inactive call. Shares of all reads are compared, so uncut sequences can rise above 0 when many others are cut.
test system: T1, Rep nickase domain of tomato golden mosaic virus; assay: uncleaved DNA left, log2 of reads against the no-enzyme library (log2 ratio); higher = less cleavage (more negative = more Rep cleavage of the k-mer); sequences stand for … in CTCGTCCG…ACCGGAGA
T1 sequence (Rep 1-124, printed without the tag): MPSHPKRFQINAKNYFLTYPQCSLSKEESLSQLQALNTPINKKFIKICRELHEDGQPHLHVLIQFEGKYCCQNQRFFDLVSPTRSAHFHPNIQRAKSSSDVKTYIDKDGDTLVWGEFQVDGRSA
Method: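 A pool of 90-nt single-stranded DNAs with seven random bases just before the constant AC of the nick site (name = the seven bases) was cut by 3 µM recombinant His6-SUMO-tagged Rep nickase domain (300 nM DNA, 50 mM HEPES pH 8.0, 50 mM NaCl, 1 mM MnCl2, 1 h, 37 °C, three replicates). Uncut DNA was amplified and sequenced.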

Sequence | uncleaved DNA left (log2)
ATGCCCA | -0.0826
TGTCCAG | -0.168
CATGGTC | -0.0125
TATAGGA | 0.26
AATGCAA | -0.000849
ACGATAG | 0.105
GCCCCGA | -0.0454
ATTGTAT | 0.0271
TAGAGAA | 0.0296
AGGACTC | -0.106
ATATATG | 0.0729
CTTTGTT | -0.179
AAGCTGA | 0.235
GTTATCT | 0.137
GAGGGAC | 0.0511
CGGGCTG | 0.00607
TGGCGCA | 0.115
ATATTTC | -0.127
ACTACAG | 0.0702
TACAATA | -0.00111

Sequence | uncleaved DNA left (log2)
ACGTCCG | -0.0435
GGACAGA | 0.292
GACTTAT | -0.13
ATCTCCC | -0.00786
TTAGTTA | -0.00815
GTGATTG | 0.0578
TTACCAC | -0.0742
GAATAGT | -2.77
TCAGGTT | 0.0527
TTAACCA | -0.0356
TCAGGCT | 0.132
ATCGACA | -0.00945
TTTTTAT | 0.0196
TGTCTCT | -0.0339
ACGTTAG | -0.143
GGCACTA | -0.0271
ACCACAG | 0.0276
GTACGTA | 0.0328
AACATCA | 0.0288
CTGGCCT | -0.184

From the supplement of paper PMC7826260
